In paper PMC12040169 (PLOS Biology, 2025):
The other results are listed elsewhere or left out.

System: T1, C. trachomatis L2/434/Bu expressing GFP (CTL2-GFP)
T1 construct: L2/434/Bu GFP intracellular growth in HeLa cells
Set-up: species or system HeLa; C. trachomatis total inclusion area by high-content imaging, normalised to DMSO
Conditions: total inclusion area; 28.5 h, 10 µM; inhibitor
Procedure, shortened: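 High-content images of fixed, Hoechst-stained infected cultures supply inclusion area and count (growth) plus nuclei number (viability), complementing bulk GFP/resorufin fluorescence. MIC determination is unchanged from the primary assay.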

| Compound | % of control remaining |
| --- | --- |
| O=C(Nc1cccc(Cl)c1)c1cc2cc(O)ccc2cc1O [CBK016894] | 89.5497 |
| O=C(CC(NC1CCCC1)C(=O)O)Nc1ccc(F)cc1 (stereo not shown) [CBK266976] | 132.107 |
| O=C(Cn1ccc([N+](=O)[O-])n1)NCc1ccco1 [CBK268999] | 104.305 |
| COc1cc(CNc2ccc(N3CCCCC3)cc2)ccc1OCc1ccccc1F [CBK074472] | 73.4427 |
| Cc1cc(CN(C)Cc2cnn(Cc3ccccc3)c2C)n[nH]1 [CBK283017] | 88.6973 |
| COc1ccc(-c2ccc3c(c2)COC2(CCCNC2)O3)c(OC)c1 (stereo not shown) [CBK105316] | 45.0823 |
| CCOC(=O)c1[nH]c2ccccc2c1NC(=O)c1ccc(Br)cc1Cl [CBK160147] | 90.5747 |
| CCc1cc(Br)ccc1S(=O)(=O)NCCCC(=O)OC [CBK044788] | 81.3879 |
| CC(C)(C)NS(=O)(=O)c1ccc(CCC(=O)Nc2ccc(F)c(Cl)c2)cc1 [CBK266974] | 99.419 |
| O=S(=O)(Nc1cccc2cccnc12)c1cccs1 [CBK043904] | 102.671 |
| CSc1ncc(Cl)c(C(=O)Nc2sc3c(c2C(=O)NC2CCS(=O)(=O)C2)CCC(C)C3)n1 (stereo not shown) [CBK268886] | 91.412 |
| CC(C)C(=O)Nc1cc2cccnc2nc1-c1cccc(C(F)(F)F)c1 [CBK073657] | 94.4715 |
| O=C(CCn1c(C(F)(F)F)cc2cccnc21)NCc1ccncc1 [CBK284841] | 100.607 |
| CNc1nc(Cn2ncc(N3CCCN(C)CC3)cc2=O)cs1 [CBK307446] | 96.053 |
| Cc1nc2c(c(=O)[nH]1)CCN(Cc1c(C)oc3ccccc13)C2 [CBK283994] | 102.159 |
| O=C1NNC=Cc2c1cnc1nc(C(F)(F)F)nn21 [CBK288156] | 110.151 |
| O=C(NC1CCCN(c2ncccn2)C1)c1ccc(-c2ccc(F)cc2)s1 (stereo not shown) [CBK298337] | 76.9366 |
| O=C(O)CCNC(=O)/C(=C/c1ccc(Cl)cc1)NC(=O)c1ccccc1 [CBK300484] | 75.3724 |
| CCOc1ccc(-c2nc(CSc3n[nH]c(=O)n3CCc3ccccc3)cs2)cc1 [CBK296735] | 99.2154 |
| C(CSC1=NCCN1)CSC1=NCCN1 [CBK278217B] | 83.0373 |

| Compound | % of control remaining |
| --- | --- |
| Cc1nnc(SCc2ccc(CSc3nnc(C)n3N)cc2)n1N [CBK265561] | 106.201 |
| O=C(CSc1nnc(-c2ccncc2)o1)Nc1ccccc1 [CBK287586] | 93.5314 |
| O=C1CC(C(=O)c2ccccc2)NC(N2CCOCC2)=N1 (stereo not shown) [CBK267352] | 101.384 |
| COc1ccc(C)cc1S(=O)(=O)Nc1ccc(O[C@@H]2CCNC2)c2ccccc12 [CBK051622C] | 59.1908 |
| CNC(=O)C1CCCN1C(=O)c1nnn(Cc2ccc(F)cc2F)c1C (stereo not shown) [CBK306496] | 44.7534 |
| CCn1cc(-c2cncn2C(CCN(C)C)c2ccccc2)cn1 (stereo not shown) [CBK281741] | 100.916 |
| CCN(CC)C(=O)c1[nH]c2ccccc2c1NS(=O)(=O)c1ccc(F)cc1 [CBK050105] | 45.6374 |
| Cc1ccccc1NS(=O)(=O)c1cc(OCC(N)=O)c(C)cc1Cl [CBK266443] | 98.1199 |
| CCc1nc2ccc(C(=O)Nc3ccc(OC)c(OC)c3)cn2c1N(CC)C(=O)NCCc1ccccc1 [CBK147035] | 104.392 |
| COCCn1c(-c2ccc(CN3CCCC3)cc2)cc2onc(C)c2c1=O [CBK050385C] | 56.3755 |
| CCN(CC)C(=O)Cn1nc(C)n2c(cc3occc32)c1=O [CBK283620] | 77.7128 |
| O=C(Nc1ccc(OCc2ccccc2F)cc1)c1ccc(-n2cnnc2)cc1 [CBK285816] | 107.261 |
| Cc1cc(OCC(=O)Nc2nn(Cc3ccccc3Cl)cc2Cl)ccc1[N+](=O)[O-] [CBK268113] | 94.316 |
| Cc1cccc(C(=O)NC(=S)Nc2cccc(C(=O)O)c2)c1 [CBK264987] | 100.723 |
| O=C(Nc1ccc(I)cc1C(=O)N1CCCCC1CCO)c1cccc2ccccc12 (stereo not shown) [CBK266212] | 132.637 |
| COc1ccc(C(=O)n2nc(SC)nc2N)cc1 [CBK006853] | 90.8978 |
| O=C(NCCOc1ccccc1Cl)NC(=O)C1CCN(CCOc2ccc(Br)cc2)CC1 [CBK034897] | 63.4333 |
| CC(NC(=O)N(Cc1c[nH]c(-c2ccccc2)n1)CC(C)(C)CN)c1cccc2ccccc12 (stereo not shown) [CBK026801C] | 27.5834 |
| COc1cc2c(c(OC)c1OC)CC(=O)NC21CCN(C(=O)CC(C)CC(=O)O)CC1 (stereo not shown) [CBK047265] | 91.7589 |
| O=S(=O)(Nc1ccc(C(O)(C(F)(F)F)C(F)(F)F)cc1)c1csc2ccccc12 [CBK062098] | 106.511 |
